Measured values reported in PubChem BioAssay AID2546 (National Center for Advancing Translational Sciences (NCATS), 2010).
The whole screen tested about 310,000 compounds, of which about 11,000 (3.5%) were called active. This list was built around the results that the source calls inconclusive (neither active nor inactive); the mix of calls is not that of the screen. The call rests on the fitted dose curve; in most records, active means well fitted inhibition curve with a large enough effect; inconclusive means small, poorly fitted or top-dose-only effect, or effect the other way; inactive means flat fitted curve, though single readings scatter. Potencies of inconclusive entries are left out as doubtful fits.

Assay: VP16 counterscreen qHTS for inhibitors of ROR gamma transcriptional activity;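 further: Gal4-VP16 expression switched on by copper sulfate through the metallothionein promoter; nearly all actives have a fitted effect of over 50% in size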
Conditions: Drosophila S2 Gal4-VP16 UAS-luciferase, luminescence, 20 h; activity, negative = inhibition: at 53.6 µM (top of the series)
On the % scale 0 is the no-effect control and ±100 the full control effect; potency means the concentration at half of the fitted maximal effect; tags describe the fitted curve by direction and shape.

Row | Structure (SMILES) | Potency | activity, negative = inhibition
1 | CCOc1ccc(C(=O)Nc2ccc(-c3nc4ccccc4[nH]3)cc2)cc1[N+](=O)[O-] | inconclusive [inhibitor, single point] | 
2 | CCOc1cc(/C=C2\COc3ccccc3C2=O)ccc1OCC(=O)N(C)C | inconclusive [inhibitor, single point] | 
3 | Cc1ccc(OCCCCc2c(C)n[nH]c2C)cc1 | inconclusive [inhibitor, single point] | 
4 | CCCN1CCN(C(=S)Nc2ccc(SC(F)F)cc2)CC1 |  | inactive: 20.5%
5 | COCCCNC(=S)N1CCN(c2nc(-c3ccc(F)cc3)cs2)CC1 | inconclusive [inhibitor, partial curve] | 
6 | CC(C)(C)c1ccc(/C=N/OCC(=O)NCc2ccccc2)cc1 | inconclusive [activator, single point] | 
7 | COCCNC(=S)N/N=C/c1c2ccccc2cc2ccccc12 | inconclusive [inhibitor, single point] | 
8 | Cc1ccc(NC2=CC(=O)CC(C)(C)C2)cc1Cl |  | inactive: -10.2%
9 | O=C(NNc1nc2cc3c(cc2s1)OCO3)c1ccc(F)cc1 | inconclusive [inhibitor, single point] | 
10 | O=C(NC(NNc1ccc([N+](=O)[O-])cc1)(C(F)(F)F)C(F)(F)F)c1ccc(Cl)cc1 | inconclusive [inhibitor, single point] | 
11 | CSc1nnc(-c2ccc(C(F)(F)F)nc2C)o1 | inconclusive [activator, single point] | 
12 | CSc1cccc(NC(=O)/C=C/c2ccco2)c1 | inconclusive [activator, single point] | 
13 | Cc1ccc(Nc2nc(-c3ccc(S(=O)(=O)N4CCCC4)cc3)cs2)cc1C |  | inactive: -0.168%
14 | COc1ccc(-n2nc(C(=O)NCC(=O)NCC3COc4ccccc4O3)c3ccccc3c2=O)c(OC)c1 (stereo not drawn) |  | inactive: 2.45%
15 | CCOC(=O)Cn1c2c(c(=N)c3c1CCC3)CCCC2 |  | inactive: -4.92%
16 | COc1cc(/C=C2\SC(=O)N(CCN)C2=O)ccc1OS(=O)(=O)c1cc(C)ccc1C | inconclusive [inhibitor, single point] | 
17 | CCOC(=O)c1[nH]c2ccccc2c1NC(=O)CCN1CC(C)OC(C)C1 (stereo not drawn) |  | inactive: 0.171%
18 | Cc1ccccc1OCCNc1cc(N2CC(C)NC(C)C2)ccc1[N+](=O)[O-] (stereo not drawn) | inconclusive [inhibitor, single point] | 
19 | CC(Oc1ccc(Cl)cc1Cl)c1ccn[nH]1 (stereo not drawn) |  | inactive: -7.13% [at 10 µM]
20 | Cn1cccc1/C=C1\SC(=Nc2cccc(O)c2)NC1=O | inconclusive [inhibitor, partial curve] | 
21 | Cc1c(C(=O)Nc2ccccc2)cn2c(nc3ccccc32)c1C#N | inconclusive [inhibitor, single point] | 
22 | CCOc1cc(C(=O)N2CCCN(C)CC2)cc(OCC)c1OCC | inconclusive [activator, single point] | 
23 | CCOc1ccc(CCNC(=O)COC(=O)c2c(C)nn(-c3ccccc3)c2C)cc1OCC |  | inactive: 0.63%
24 | Cc1ccc(NNC(=O)C2CCC2)cc1C | inconclusive [inhibitor, single point] | 
25 | CC1CCCC(NC(=O)c2ccc3snnc3c2)C1C (stereo not drawn) |  | inactive: 14.1%

Row | Structure (SMILES) | Potency | activity, negative = inhibition
26 | CCOC(=O)C1CCCN(S(=O)(=O)c2ccc(S(=O)(=O)N(CC)CC)cc2)C1 (stereo not drawn) | active: 4.47 µM | 
27 | COc1ccc(CCNC(=O)C/C(C)=N/NC(=O)C23CC4CC(CC(C4)C2)C3)cc1OC | inconclusive [inhibitor, single point] | 
28 | Cc1nccc(-c2ccc(-n3cnc4ccccc43)cc2)n1 | inconclusive [inhibitor, single point] | 
29 | CS(=O)(=O)N1CCc2cc(C(=O)NC3CC3)ccc21 |  | inactive: -15.7%
30 | CC(c1ccccc1)N(CCC(c1ccccc1)C1CCOC(C)(C)C1)C(=O)c1ccco1 (stereo not drawn) | inconclusive [inhibitor, single point] | 
31 | Cc1nn(Cc2ccccc2)c(Cl)c1C(=O)OCc1nnc(-c2ccccc2)o1 | inconclusive [inhibitor, single point] | 
32 | Cc1noc(/C=C/N(C)C)c1S(=O)(=O)N1CCCC(C(=O)NC(C)c2ccccc2)C1 (stereo not drawn) | inconclusive [inhibitor, partial curve] | 
33 | O=C(COC(=O)c1ccc2ccccc2n1)Nc1cccc(S(=O)(=O)NC2=NCCCCC2)c1 |  | inactive: 0.245%
34 | O=C(NCc1ccco1)c1cccn2c(=O)c3c4c(sc3nc12)CCCC4 | active: 11.2 µM | 
35 | NC(=O)c1c(NC(=O)c2ccccc2)sc2c1CCN(Cc1ccccc1)C2 | inconclusive [inhibitor, partial curve] | 
36 | COC(=O)c1ccc(C2/C(=C(/O)c3ccc(OC)cc3)C(=O)C(=O)N2Cc2ccco2)cc1 (stereo not drawn) |  | inactive: -4.64%
37 | COc1cccc(CC(NC(C)=O)C(=O)NC2CCN(c3nc(C)cc(C)c3C#N)CC2)c1OC (stereo not drawn) |  | inactive: 13.4%
38 | Cc1cc(C)cc(Oc2ccccc2/C=N\O)c1 | active: 11.2 µM | 
39 | O=C(N/N=C/c1cc2c(cc1Br)OCO2)c1ccccn1 | inconclusive [activator, full curve, poor fit] | 
40 | NC(=O)c1cc(S(=O)(=O)NCCc2ccc(S(N)(=O)=O)cc2)cs1 |  | inactive: -3.12%
41 | N/C(=N/OC(=O)c1ccccc1Cl)c1ncc([N+](=O)[O-])s1 | inconclusive [inhibitor, single point] | 
42 | Cc1nn(-c2ccccc2)c2c1C(=O)N(Cc1ccccc1)C(=O)C(C)(C)C2 | inconclusive [inhibitor, single point] | 
43 | CN=c1scc(-c2ccc(OC)cc2)n1/N=C(\C)c1cccnc1 | inconclusive [inhibitor, single point] | 
44 | c1cnc2c(OCc3nc4ccccc4[nH]3)cccc2c1 | inconclusive [inhibitor, single point] | 
45 | COc1ccc(-c2cc(=O)[nH]c(N3CCN(Cc4ccccc4)CC3)n2)cc1 |  | inactive: -5.28%
46 | O=C(Nc1nc2ccccc2n1CCN1CCCCC1)c1ccco1 | inconclusive [inhibitor, single point] | 
47 | Cc1ccc(S(=O)(=O)CC(=O)Nc2nnc(C)s2)cc1 |  | inactive: 0.532%
48 | NS(=O)(=O)c1ccc(CCNC(=O)CSc2nc3ccsc3c(=O)n2CC(=O)O)cc1 |  | inactive: -6.41%
49 | CCC1=NN(C(=O)c2ccc(Br)cc2)C(O)(c2ccccc2)C1 (stereo not drawn) | active: 7.08 µM | 
50 | COc1ccc(CCNC(=O)c2cc3c(=O)n4cccc(C)c4nc3n(Cc3ccco3)c2=N)cc1OC | active: 1.12 µM | 

Row | Structure (SMILES) | Potency | activity, negative = inhibition
51 | COc1ccc(-c2csc(N3CCOCC3)n2)cc1OC | inconclusive [inhibitor, single point] | 
52 | Cc1noc(NS(=O)(=O)c2ccc(N/C=C\C(=O)c3cccs3)cc2)c1C | inconclusive [activator, partial curve, poor fit] | 
53 | CCc1ccc(/C=c2\s/c(=C\C(=O)C(C)(C)C)[nH]c2=O)cc1 | inconclusive [inhibitor, partial curve] | 
54 | CN(C1=C(NC(=O)c2ccc(Cl)cc2)C(=O)c2ccccc2C1=O)c1ccccc1 | active: 11.2 µM | 
55 | CCOC(=O)C1=C(C)C(c2cccc(Oc3ccccc3)c2)NC(=S)N1 (stereo not drawn) | active: 17.8 µM | 
56 | Cc1cccc(NCC(=O)N/N=C/c2cccc(Br)c2)c1 |  | inactive: -10.3%
57 | Cc1oc(-c2ccc(Cl)cc2)cc1-c1nn2c(-c3ccoc3C)nnc2s1 | inconclusive [inhibitor, single point] | 
58 | CCOc1ccccc1N=Cc1c(O)c2ccccc2oc1=O |  | inactive: -16.3%
59 | Cc1ccc(S(=O)(=O)c2nc(C(C)(C)C)oc2N2CCOCC2)cc1 | inconclusive [inhibitor, single point] | 
60 | O=C(O)c1ccc(N/N=C/c2ccc(-c3ccc(Cl)cc3Cl)o2)cc1 | inconclusive [inhibitor, single point] | 
61 | CCC(=O)Nc1nc(C)c(-c2csc(Nc3ccccn3)n2)s1 | inconclusive [activator, single point] | 
62 | CCC(=O)Nc1cccc(C(=O)/C=C/c2cc(Br)ccc2OC)c1 | inconclusive [inhibitor, single point] | 
63 | Cc1ccc(S(=O)(=O)NNC(=O)CCC(=O)Nc2ccc(C)cc2C)cc1 | inconclusive [activator, single point] | 
64 | CCCCN1CN(Cc2ccccc2)CNC1=S | active: 5.01 µM | 
65 | COc1cc(/C=C/C(=O)NCC2CCCCC2)cc(OC)c1OC |  | inactive: -2.43%
66 | CCOc1c(OC(C)=O)ccc(/C=C/c2ccc3cccc(OC(C)=O)c3n2)c1[N+](=O)[O-] | active: 3.55 µM | 
67 | O=C(O)/C(=C1\OC(=O)c2ccccc21)c1ccccc1 | inconclusive [activator, single point] | 
68 | COc1ccc(N(CC(=O)NCCSCc2ccco2)S(=O)(=O)c2ccccc2)cc1Cl | inconclusive [activator, full curve, poor fit] | 
69 | CCNc1nc(NC(C)(C)C)nc(N2CCCCC2)n1 | inconclusive [inhibitor, single point] | 
70 | O=C(CSc1nnc(CCc2nc3ccccc3[nH]2)n1-c1ccccc1)NCc1ccccc1 | inconclusive [inhibitor, partial curve, poor fit] | 
71 | COc1cccc(C(=O)NC(=S)Nc2ccccc2N2CCCCC2)c1 | active: 5.01 µM | 
72 | CNc1nc(-c2ccc(OC)cc2)c(-c2ccc(OC)cc2)s1 |  | inactive: -0.473%
73 | COc1ccc2nc(C)cc(SCC(=O)NNC(=O)COc3cccc4ccccc34)c2c1 | active: 8.91 µM | 
